# Screen size: about 360,000 compounds; about 520 (0.14%) were called active. The inconclusive results got no clear call from the source; some entries with a clear call stand among them for comparison. Calls follow the shape of the dose curve; as a rule, active = well fitted inhibition curve with a large enough effect; inconclusive = small, poorly fitted or top-dose-only effect; inactive = no such curve, though single readings can be large or run the other way. Potencies of inconclusive entries are left out as doubtful fits.
# Target: Rap guanine nucleotide exchange factor 3 (Homo sapiens) (UniProt O95398)
# Chain of UniProt O95398 (O95398 whole entry, looked up): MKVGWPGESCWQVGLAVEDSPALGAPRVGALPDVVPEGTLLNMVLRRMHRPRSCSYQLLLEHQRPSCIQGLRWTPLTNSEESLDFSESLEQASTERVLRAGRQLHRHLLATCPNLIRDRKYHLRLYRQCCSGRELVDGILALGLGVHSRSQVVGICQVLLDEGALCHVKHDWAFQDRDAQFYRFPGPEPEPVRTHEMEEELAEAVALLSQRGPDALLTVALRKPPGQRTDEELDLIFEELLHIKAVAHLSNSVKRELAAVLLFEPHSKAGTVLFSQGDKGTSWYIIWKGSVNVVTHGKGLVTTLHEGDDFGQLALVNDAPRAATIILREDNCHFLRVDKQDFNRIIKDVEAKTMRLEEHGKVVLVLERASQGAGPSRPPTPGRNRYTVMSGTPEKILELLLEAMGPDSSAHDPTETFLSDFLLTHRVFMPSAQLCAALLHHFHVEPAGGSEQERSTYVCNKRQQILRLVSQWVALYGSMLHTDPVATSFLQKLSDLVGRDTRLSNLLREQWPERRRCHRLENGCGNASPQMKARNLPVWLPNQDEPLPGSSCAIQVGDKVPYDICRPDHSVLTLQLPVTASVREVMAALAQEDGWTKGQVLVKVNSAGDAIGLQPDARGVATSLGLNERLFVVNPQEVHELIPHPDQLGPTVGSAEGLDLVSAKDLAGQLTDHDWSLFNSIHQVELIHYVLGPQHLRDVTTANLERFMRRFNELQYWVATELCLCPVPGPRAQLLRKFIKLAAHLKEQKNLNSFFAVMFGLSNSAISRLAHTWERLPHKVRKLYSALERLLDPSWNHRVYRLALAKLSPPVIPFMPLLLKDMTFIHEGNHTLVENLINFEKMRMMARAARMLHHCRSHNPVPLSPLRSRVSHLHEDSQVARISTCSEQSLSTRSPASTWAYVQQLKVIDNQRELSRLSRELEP
# Assay: qHTS for Antagonist of cAMP-regulated guanine nucleotide exchange factor 3 (EPAC1): primary screen; also: nearly all actives have a fitted effect of over 50% in size;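 as to activity change, negative = inhibition: plate controls were vehicle for no effect and positive control for full effect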
# Settings: EPAC1 GEF assay, Rap1b-BODIPY-GDP exchange fluorescence; activity change, negative = inhibition: at 115 µM (top of the series)
# Potency is read from the fitted curve at half-maximal effect; tags tell the direction and shape of the fitted curve.
SMILES,"activity change, negative = inhibition",Potency
CCn1nc(C)c(CN2CCC(C(=O)Nc3cccc(-c4cccc(Cl)c4)c3)CC2)c1C,inactive: 7.67%,
Cc1cccc2sc(NC(=O)CN3C(=O)C4CC=CCC4C3=O)nc12 (stereo not drawn),inconclusive: -7.73% [inhibitor],
O=C(CN1CCN(Cc2ccccc2Cl)C1=O)NCc1cccnc1,,"inconclusive [inhibitor, single point]"
O=C(CC(=O)OCc1ccccc1)OCc1ccccc1,inactive: -25.8%,
O=C(Cc1ccccc1)Nc1ccc(SC(F)F)cc1,,"inconclusive [inhibitor, single point]"
CC(C)C(=O)N1N=C(c2ccc(NS(C)(=O)=O)cc2)CC1c1cccs1 (stereo not drawn),,"inconclusive [inhibitor, partial curve]"
Cc1ccc(C)c(OCCNc2ncccc2[N+](=O)[O-])c1,,"inconclusive [inhibitor, partial curve, poor fit]"
COc1ccc(-c2cc(C(=O)NNC(=S)NC(=O)c3c(-c4ccccc4)noc3C)[nH]n2)cc1,inactive: -5.79%,
O=C(NCCCl)Nc1cccc(Br)c1,,"inconclusive [inhibitor, partial curve, poor fit]"
O=C(Nc1ccc(Cl)cn1)C1COc2ccccc2O1 (stereo not drawn),,"inconclusive [inhibitor, single point]"
COc1ccc(C(=O)NC2CCN(C(=S)Nc3ccc(C)cc3)CC2)cc1,,"inconclusive [inhibitor, partial curve, poor fit]"
COCCNCC1C(Oc2ccc(Cl)cc2)C(=O)N1c1ccccc1C (stereo not drawn),,"inconclusive [inhibitor, single point]"
CN(C)c1cccc2c1c(NC(=O)c1ccc(Cl)cc1)nn2C,inactive: 8.04%,
Oc1ccccc1CNc1ccc(OC(F)(F)F)cc1,,"inconclusive [inhibitor, partial curve]"
COc1ccc(/C=C2\C(=O)NC(=S)N2C(=O)c2ccc(F)cc2)cc1,,"inconclusive [inhibitor, single point]"
COc1cc(N(C(C)=O)c2ccc(O)c(C(=O)O)c2)c2ncccc2c1,inactive: -1.26%,
COc1cc(NS(=O)(=O)c2ccc(NC(=O)/C(=C/c3ccccc3Cl)NC(=O)c3ccccc3)cc2)nc(OC)n1,,"inconclusive [inhibitor, partial curve]"
CC(C)(O)c1[nH]c2cc(C(F)(F)F)ccc2c1C(C)(C)O,,"inconclusive [inhibitor, single point]"
Cc1cc(-c2csc(NC(=O)C3=COCCO3)n2)c(C)n1C,,"inconclusive [inhibitor, partial curve, poor fit]"
COc1ccc(C2=C/C(=C\c3cccc(OC(C)=O)c3)C(=O)O2)cc1,,"inconclusive [inhibitor, single point]"
CCN(CC(=O)Nc1cccc(C#N)c1)CC(=O)Nc1cccc(OC)c1,,"inconclusive [inhibitor, single point]"
O=C(C=Cc1ccccc1)c1c[nH]c2ccccc2c1=O,,active: 79.4 µM
Cc1nnc(NC(=O)c2ccc3c(c2)OCO3)s1,,"inconclusive [inhibitor, full curve, poor fit]"

SMILES,"activity change, negative = inhibition",Potency
O=C(Nc1cccc(F)c1)C1CCN(C(=O)c2ccco2)CC1,inactive: 9.55%,
Oc1c(N=Nc2nn[nH]n2)ccc2ccccc12,,"inconclusive [inhibitor, full curve]"
Fc1ccc(CNc2nc(-c3cccnc3)nc3ccccc23)cc1,,"inconclusive [inhibitor, full curve]"
COc1ccc(Br)c(C=O)c1OS(=O)(=O)c1ccc(C)cc1,,"inconclusive [inhibitor, partial curve]"
COC(=O)c1ccc(-c2ccc(F)cc2)nc1C,inactive: 5.09%,
Nc1ccc(NC(=O)c2ccc(C(=O)Nc3ccc(N)cc3)cc2)cc1,inactive: 7.19%,
C[C@@H](C(O)c1ccccc1)N(C)C(=O)CCc1ccccc1 (stereo partly drawn),inactive: -4.52%,
CC(=O)c1ccc(-c2cnc3c(NC=O)cc(-c4ccccc4Oc4ccccc4)cn23)cc1,,"inconclusive [inhibitor, partial curve]"
COc1ccc(N2CCN(Cc3nc(N)nc(Nc4ccc(C)c(Cl)c4)n3)CC2)cc1,inactive: -5.61%,
COc1cc(NC(=O)c2ccc(F)cc2)ccc1NC(=O)c1cc2ccccc2o1,inactive: 19.2%,
CCCCN(C)C(=O)c1cc2cc([N+](=O)[O-])cc(OC)c2oc1=O,,"inconclusive [inhibitor, full curve, poor fit]"
Cc1ccccc1N/C(=N/S(=O)(=O)c1ccccc1)c1ccc(F)cc1,,"inconclusive [inhibitor, partial curve]"
Oc1ccc(Cl)cc1Cc1cc(Cl)ccc1O,inactive: -13.2%,
O=C(CCCN1C(=O)S/C(=C\C=C\c2ccccc2)C1=O)Nc1ccc(O)cc1,,"inconclusive [inhibitor, partial curve, poor fit]"
CC(C)(C)NC(=O)C(c1ccccc1F)n1c(=O)c(-c2cc3ccccc3[nH]2)nc2ccccc21 (stereo not drawn),inactive: -20.5%,
COc1cccc(CN(C)C(=O)c2cccc(S(=O)(=O)NCc3ccccc3)c2)c1OC,,"inconclusive [inhibitor, single point]"
CC(=O)N1c2ccc(S(=O)(=O)N3CCC(C(=O)NCc4ccc(C)cc4)CC3)cc2CC1C (stereo not drawn),,"inconclusive [inhibitor, single point]"
CC1(C)Cc2c(sc3c2c(=N)n(Cc2ccco2)c(=O)n3CC(=O)Nc2ccccc2)CO1,,"inconclusive [inhibitor, single point]"
CC1CCc2nc3sc4c(c3c(N)c2C1)CCCC4 (stereo not drawn),,"inconclusive [inhibitor, single point]"
CC(=O)c1c(C)[nH]c(C(=O)Nc2ccc(C)c(S(=O)(=O)Nc3ccc(C)cc3C)c2)c1C,,"inconclusive [inhibitor, full curve, poor fit]"
COc1ccccc1N1CCN(c2cc(=O)n(Cc3ccc(F)cc3)c(=O)[nH]2)CC1,,"inconclusive [inhibitor, single point]"
C(=C\n1nnc2ccccc21)/c1ccc[nH]1,,"inconclusive [inhibitor, partial curve]"
Cc1ccc([C@H]2N[C@]3(CCCN(Cc4ccccc4)C3=O)[C@H]3C(=O)N(C)C(=O)[C@@H]23)cc1,inactive: -23.4%,

SMILES,"activity change, negative = inhibition",Potency
COC(=O)[C@@]12C[C@@H](CC(=O)NCCC(C)C)C(=O)N(Cc3cccc4ccccc34)C1=CCC(C)(C)C2,,"inconclusive [inhibitor, single point]"
COc1cc(C(C(=O)NC2CCCC2)N(Cc2ccco2)C(=O)c2snc(C(N)=O)c2N)cc(OC)c1OC (stereo not drawn),,"inconclusive [inhibitor, partial curve]"
COCCN(C(=O)/C=C/c1cccc([N+](=O)[O-])c1)c1c(N)n(Cc2ccccc2)c(=O)[nH]c1=O,inactive: -10%,
CC(C)NC(=O)C1(C)CSCC(=O)N1C1CC1 (stereo not drawn),inactive: 2.11%,
O=C(Cn1cnc2c(OCc3ccccc3)ncnc21)NCc1ccc2[nH]ccc2c1,,"inconclusive [inhibitor, single point]"
CC(C)N(CCNC(=O)C1CCC(=O)N1Cc1ccc(F)cc1)Cc1ccccc1 (stereo not drawn),,"inconclusive [inhibitor, partial curve]"
O=C(NCCCN1CCc2ccccc2C1)Nc1ccc(Br)cc1,inactive: -10.5%,
COc1ccc2ccccc2c1/C=N/Nc1cccc(C(=O)O)c1,inactive: -20%,
FC(F)(F)COc1nc(N2CCOCC2)nc(N(c2ccccc2)c2ccccc2)n1,,"inconclusive [inhibitor, partial curve]"
CCc1nc2ccccc2c(C(=O)OCCN2C(=O)c3ccccc3C2=O)c1C,,"inconclusive [inhibitor, partial curve]"
CCC(SC1=N/C(=C/c2ccccc2OC)C(=O)N1c1ccccc1)C(=O)Nc1cc(C)on1 (stereo not drawn),,"inconclusive [inhibitor, single point]"
COc1ccc(-c2nc3cnccn3c2Nc2ccc(C)cc2)cc1,,"inconclusive [inhibitor, partial curve]"
CCOc1ccc(C(=O)n2cnnc2N)cc1,,"inconclusive [inhibitor, single point]"
S=c1[nH]nc(COc2ccccc2)n1/N=C/C=C/c1ccco1,,"inconclusive [inhibitor, single point]"
Cc1ccccc1NC(=O)CN1C(=O)COc2ccc(S(=O)(=O)N3CCCC3)cc21,,"inconclusive [inhibitor, full curve, poor fit]"
CN=c1scc(-c2ccco2)n1/N=C/c1ccc(O)c(O)c1,,"inconclusive [inhibitor, partial curve]"
CCCCCOc1ccc(C(=O)CCC(=O)NC(C)c2ccc(S(N)(=O)=O)cc2)cc1 (stereo not drawn),inactive: -24.8%,
N#Cc1ccc(N2C(=O)[C@@H]3C(C(=O)c4ccc5ccccc5n4)=NN[C@@H]3C2=O)cc1,inactive: -1.98%,
CCC(C)c1ccccc1N1CC(C(=O)Nc2ccc(C)c(S(=O)(=O)N3CCOCC3)c2)CC1=O (stereo not drawn),inactive: -20.6%,
COc1ccc(/C=N/Nc2ncnc3sc4c(c23)CCCC4)cc1O,,"inconclusive [inhibitor, partial curve, poor fit]"
O=C(O)CSc1cc(C(=O)c2ccccc2O)cn2c(=O)c3c(-c4ccccc4)csc3nc12,,"inconclusive [inhibitor, partial curve]"
Cc1cc(/C=C2\C(=N)N3N=C(c4ccco4)SC3=NC2=O)c(C)n1Cc1ccccc1,,"inconclusive [inhibitor, partial curve, poor fit]"

# Source: PubChem BioAssay AID720709 (National Center for Advancing Translational Sciences (NCATS), 2013)
